# Whole data set: some 33,000 sequences, median “E-score (-0.5 to 0.5)” near -0.036, cut for the highest 2% near 0.37. Some of the results follow.
# Target: T1, Yer064c (UniProt P40041)
# T1 sequence: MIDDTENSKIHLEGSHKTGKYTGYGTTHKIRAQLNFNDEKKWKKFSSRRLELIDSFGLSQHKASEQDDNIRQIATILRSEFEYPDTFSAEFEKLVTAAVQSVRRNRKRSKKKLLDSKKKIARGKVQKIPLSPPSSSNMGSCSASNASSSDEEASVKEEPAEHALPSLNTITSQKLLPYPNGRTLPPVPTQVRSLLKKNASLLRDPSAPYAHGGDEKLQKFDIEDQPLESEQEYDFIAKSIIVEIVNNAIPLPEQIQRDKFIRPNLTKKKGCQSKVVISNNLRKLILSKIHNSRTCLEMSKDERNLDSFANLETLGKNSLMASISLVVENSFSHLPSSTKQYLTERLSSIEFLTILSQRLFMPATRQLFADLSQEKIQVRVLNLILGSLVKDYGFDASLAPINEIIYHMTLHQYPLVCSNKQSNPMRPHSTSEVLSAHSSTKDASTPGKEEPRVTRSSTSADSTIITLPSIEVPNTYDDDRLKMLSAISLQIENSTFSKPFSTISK
# Experiment: PBM E-score (8-mer binding enrichment) (E-score (-0.5 to 0.5)); higher = stronger / more preferred TF binding; most listed sequences are background and not binding sites
# Conditions: protein concentration: 200 nM; construct: GST-full length
# Outline: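 Masliner-normalised scans of fluorescent anti-GST signal were the basis for scoring. That signal came from GST-tagged yeast transcription factors applied at about 100-200 nM to double-stranded universal all-10-mer Agilent arrays on fresh or once-stripped slides. Each ungapped eight-base word, pooled with its reverse complement, received an E-score from the Universal PBM Analysis Suite.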
row,Sequence,PBM E-score
1,ATTTGATG,0.199
2,GTCTCCCA,0.0829
3,CGAAGATA,0.0915
4,ACGTTAAC,-0.0219
5,ACATTCAC,-0.0247
6,CATCCTTA,0.0533
7,AGAAGGGG,-0.324
8,CCTGCGCG,-0.0204
9,CCGCCTCA,-0.181
10,CTCTTGGA,-0.0132
11,ATTGACTA,0.428
12,CCAGGGAG,-0.015
13,GGCCGTCA,-0.262
14,GAAATCTC,-0.0155
15,AAAGTCCG,-0.274
16,ACCTCCAT,-0.229
17,CCCGTTCG,-0.0469
18,AGACTGAA,0.241
19,AACTTGGT,-0.113
20,ATTCAGAG,0.148
21,CACGAGAC,0.183
22,CCGAACTA,0.0214
23,GTCGGTCA,-0.0403
24,AAACGGTT,-0.303
25,CGGGTCAC,-0.125

row,Sequence,PBM E-score
1,ACGCCTAG,-0.133
2,AGAATCGA,-0.0201
3,CGTATCAG,-0.0823
4,CTTTTAAC,-0.104
5,CAACTAGC,-0.0233
6,GTGCGTCA,-0.0644
7,GTGCCGTA,-0.25
8,GGTACGCA,-0.154
9,CGGACAGA,-0.0764
10,CCCGGACA,-0.142
11,ACACGCGA,0.0442
12,TAACGTAA,0.0837
13,ATCCAGCC,-0.184
14,CTTATGTA,0.19
15,TAGATTCA,0.163
16,CCCTGCCG,-0.241
17,GAGGAGGA,-0.192
18,AATTATTG,0.0615
19,ACCGGTAA,-0.0542
20,GTGTCGTA,0.146
21,AGCCAATG,0.08
22,ACCGTTAG,-0.0649
23,CCTATTAA,-0.121
24,AATATGAC,0.292
25,CAGATAAC,0.15

row,Sequence,PBM E-score
1,CTCTCAGA,-0.173
2,ACTCGTGG,0.111
3,CCCGCATA,-0.019
4,GCCGTACA,0.0804
5,AGAGAGGA,0.0469
6,CTTAAGCA,-0.00514
7,ATTTCTGC,0.0175
8,CCACGGGG,-0.108
9,GTGAGAAA,-0.0285
10,CCGCCAAC,-0.00346
11,AAAGAGTT,0.219
12,AAACAACC,-0.0461
13,GTTAGAAA,0.0139
14,CCCTTTCG,-0.19
15,AACTTCAC,0.0098
16,AGGCTAGC,-0.127
17,AGTTCTAG,-0.0139
18,ATGTAACG,-0.038
19,AACTGGGG,-0.12
20,CAGCCAAG,-0.141
21,ATACTACC,-0.046
22,AAAGACAC,-0.0007
23,CGTCAGCC,-0.135
24,CGAACAAC,0.00761
25,ATAATACA,0.0732

row,Sequence,PBM E-score
1,ATAGTCCG,0.316
2,GATGGGCC,-0.384
3,GATGAACC,0.0652
4,TGAACACA,0.0693
5,GATGGCTA,0.359
6,TAAGAGAA,0.0902
7,AGTCATAG,0.482
8,ATAGGTAC,-0.138
9,CTTTCGAA,0.0203
10,AGACCATG,-0.00754
11,ACCTAGGG,-0.0507
12,CTCTACTC,-0.0437
13,AAACTAGA,0.0148
14,AATTCCCA,-0.163
15,GTTAGAGA,0.0539
16,AGAACTTA,0.13
17,CTGCTAAA,-0.141
18,CGTGGCGC,-0.0516
19,GCGGGACA,-0.356
20,AGTTACAT,-0.176
21,ATATCACA,-0.24
22,AAACGTAA,0.0259
23,AGATGGTA,-0.179
24,CACGGGTA,0.213
25,CAAGGGAC,-0.26

row,Sequence,PBM E-score
1,AGCGTCTG,-0.161
2,ATCGTTCC,-0.0746
3,TATTCAGA,0.0473
4,ACCCTTAG,0.0167
5,CTTAGCGC,0.168
6,CAGTAAGG,-0.124
7,AGAACGAC,0.2
8,AAACGAAT,0.0817
9,GGACCGCC,-0.325
10,ACCGTGCT,-0.0266
11,CAGGTATG,0.047
12,AGTATTGG,-0.0653
13,TCGGATCA,-0.0516
14,CTCCTGAC,0.117
15,CGCTCGAC,-0.105
16,TACCAATA,-0.0486
17,AAAAAGCA,0.0385
18,GAGTTCAC,0.204
19,AAAGGATG,-0.0536
20,CCACATAG,0.0537
21,AAAGTCAC,0.411
22,CCCCCTAA,-0.245
23,TCACTACA,0.16
24,GAGTCGGA,0.395
25,GGTGCAAC,-0.298

row,Sequence,PBM E-score
1,AGCTCGCG,-0.0129
2,ACGCCGAG,-0.123
3,AGGACGCG,-0.135
4,CACGACCG,-0.0955
5,AAAAGACG,0.0418
6,ACGTCTGC,-0.189
7,ACAAGTTA,-0.268
8,AGCTTATG,0.0502
9,CAGTAGAG,-0.0448
10,CTGGCAAG,0.0312
11,ATTATCTC,-0.0519
12,TAAGGAAA,-0.183
13,AGAGCCGG,-0.185
14,CGGTTCGA,0.088
15,ATTGTTAC,0.138
16,GGCTGGTA,-0.158
17,CCGATTCC,-0.0847
18,AGTTGTGC,-0.165
19,CCATCGGG,-0.143
20,AGGTGCAG,-0.0467
21,ATACTGGC,-0.00979
22,GATCCACC,-0.0608
23,AACGTGGT,0.0297
24,GAATTCTC,0.0192
25,AGAGCCCA,-0.173

row,Sequence,PBM E-score
1,GAAAGCCC,-0.113
2,ATGAAGAA,0.138
3,GCTCATAC,-0.0113
4,TATGACGA,0.0856
5,CTGCGGTC,-0.245
6,ATCAAGCA,0.0142
7,AGTCTATG,0.131
8,ATCCATAG,0.0332
9,CCTTAAAA,-0.0153
10,CCAGTATA,-0.0237
11,ACCTGAAT,0.162
12,CCCTGGTC,-0.18
13,CCCAATGC,-0.0661
14,GCGCGGAC,0.0396
15,GTAATTTA,0.0524
16,CGTTTTAA,0.0118
17,ACCAAAGG,-0.18
18,ATCGAACA,-0.057
19,CTAACTCA,0.203
20,CTAGATTC,-0.0405
21,ACATTTTA,0.0524
22,GCGTTCGA,-0.01

# Reference: the supplement of paper PMC3334620
